Measured values reported in patent US20050002904A1 (published 2005).

What was measured:
Assay in all cases: solid-phase ligand binding ELISA, integrin immobilized
soluble α2β1 integrin = soluble α2β1 integrin (UniProt P17301 30-1132; P05556)
soluble α5β1 integrin = biological target: T1, soluble α5β1 integrin (UniProt P08648; P05556)
T1 construct: also called α5β1 integrin heterodimer

soluble αvβ5 integrin = soluble αvβ5 integrin (UniProt P06756 31-992; P18084 24-719)
soluble αvβ5 integrin, sequence (P06756 31-992, chain 1 of 2): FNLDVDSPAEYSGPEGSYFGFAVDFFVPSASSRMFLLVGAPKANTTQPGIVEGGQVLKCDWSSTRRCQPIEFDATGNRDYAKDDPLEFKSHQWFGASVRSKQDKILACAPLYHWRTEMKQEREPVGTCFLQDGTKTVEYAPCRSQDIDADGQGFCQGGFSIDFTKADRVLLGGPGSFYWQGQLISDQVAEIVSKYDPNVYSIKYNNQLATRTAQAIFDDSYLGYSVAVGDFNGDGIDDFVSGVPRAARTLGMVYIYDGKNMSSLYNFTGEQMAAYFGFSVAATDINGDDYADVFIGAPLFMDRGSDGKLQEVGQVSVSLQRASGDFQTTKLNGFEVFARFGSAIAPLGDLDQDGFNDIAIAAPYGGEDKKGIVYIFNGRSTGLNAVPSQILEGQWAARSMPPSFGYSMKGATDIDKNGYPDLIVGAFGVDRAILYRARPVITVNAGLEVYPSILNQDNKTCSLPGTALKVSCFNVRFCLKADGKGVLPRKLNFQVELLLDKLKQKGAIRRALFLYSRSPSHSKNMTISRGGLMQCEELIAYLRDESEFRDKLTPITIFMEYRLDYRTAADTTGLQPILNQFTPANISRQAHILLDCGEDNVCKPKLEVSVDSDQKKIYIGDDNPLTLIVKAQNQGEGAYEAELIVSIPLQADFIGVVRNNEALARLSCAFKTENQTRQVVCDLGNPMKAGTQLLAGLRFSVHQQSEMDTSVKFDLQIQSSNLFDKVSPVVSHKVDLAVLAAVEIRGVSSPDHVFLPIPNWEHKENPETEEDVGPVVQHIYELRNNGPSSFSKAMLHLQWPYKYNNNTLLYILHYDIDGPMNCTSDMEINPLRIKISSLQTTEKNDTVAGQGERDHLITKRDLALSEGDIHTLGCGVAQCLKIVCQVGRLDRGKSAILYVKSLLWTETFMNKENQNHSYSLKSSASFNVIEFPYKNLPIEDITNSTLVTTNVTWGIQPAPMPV
soluble αvβ5 integrin, sequence (P18084 24-719, chain 2 of 2, further chain): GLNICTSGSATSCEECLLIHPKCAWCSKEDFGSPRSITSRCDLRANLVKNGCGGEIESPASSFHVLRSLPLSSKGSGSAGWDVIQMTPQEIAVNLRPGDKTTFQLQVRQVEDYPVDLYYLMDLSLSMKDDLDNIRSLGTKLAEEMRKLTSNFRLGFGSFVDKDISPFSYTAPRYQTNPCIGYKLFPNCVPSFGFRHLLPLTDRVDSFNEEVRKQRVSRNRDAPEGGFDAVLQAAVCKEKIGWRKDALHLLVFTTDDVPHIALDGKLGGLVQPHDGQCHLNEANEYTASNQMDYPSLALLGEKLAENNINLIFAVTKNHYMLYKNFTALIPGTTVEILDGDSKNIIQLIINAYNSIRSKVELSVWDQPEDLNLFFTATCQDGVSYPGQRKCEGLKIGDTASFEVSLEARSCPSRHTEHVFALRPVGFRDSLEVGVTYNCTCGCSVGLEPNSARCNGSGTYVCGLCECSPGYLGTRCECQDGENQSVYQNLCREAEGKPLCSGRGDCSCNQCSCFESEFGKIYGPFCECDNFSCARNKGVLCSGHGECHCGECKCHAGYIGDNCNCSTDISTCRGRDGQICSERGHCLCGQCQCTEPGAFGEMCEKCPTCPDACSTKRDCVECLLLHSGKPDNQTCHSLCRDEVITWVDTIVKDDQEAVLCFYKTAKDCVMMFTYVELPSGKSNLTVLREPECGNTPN

soluble α5β1 integrin, sequence (P08648 42-995, chain 1 of 2): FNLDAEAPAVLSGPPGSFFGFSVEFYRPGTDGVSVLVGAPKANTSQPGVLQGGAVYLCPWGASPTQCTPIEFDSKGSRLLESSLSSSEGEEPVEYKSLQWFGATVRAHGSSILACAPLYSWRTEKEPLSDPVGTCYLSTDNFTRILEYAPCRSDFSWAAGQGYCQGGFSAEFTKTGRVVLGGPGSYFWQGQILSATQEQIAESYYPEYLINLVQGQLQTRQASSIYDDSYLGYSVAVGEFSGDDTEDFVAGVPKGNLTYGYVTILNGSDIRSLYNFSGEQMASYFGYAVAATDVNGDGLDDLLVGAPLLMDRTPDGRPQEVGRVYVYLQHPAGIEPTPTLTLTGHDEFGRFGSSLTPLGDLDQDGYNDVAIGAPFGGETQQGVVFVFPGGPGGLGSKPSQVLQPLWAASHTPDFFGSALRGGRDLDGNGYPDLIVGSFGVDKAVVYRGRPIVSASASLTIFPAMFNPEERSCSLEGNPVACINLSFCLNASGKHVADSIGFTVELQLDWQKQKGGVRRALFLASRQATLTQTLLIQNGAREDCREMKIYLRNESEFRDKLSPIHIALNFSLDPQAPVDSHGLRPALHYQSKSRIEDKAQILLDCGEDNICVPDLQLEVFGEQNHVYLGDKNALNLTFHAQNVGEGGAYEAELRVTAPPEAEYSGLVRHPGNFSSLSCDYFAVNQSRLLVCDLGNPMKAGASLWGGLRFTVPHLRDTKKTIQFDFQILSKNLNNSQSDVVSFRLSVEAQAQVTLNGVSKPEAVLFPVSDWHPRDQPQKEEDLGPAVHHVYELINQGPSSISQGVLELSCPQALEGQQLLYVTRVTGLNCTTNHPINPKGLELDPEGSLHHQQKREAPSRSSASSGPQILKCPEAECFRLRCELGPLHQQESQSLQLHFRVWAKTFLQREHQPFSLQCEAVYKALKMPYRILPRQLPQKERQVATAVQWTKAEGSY
soluble α5β1 integrin, sequence (P05556 21-728, chain 2 of 2, further chain): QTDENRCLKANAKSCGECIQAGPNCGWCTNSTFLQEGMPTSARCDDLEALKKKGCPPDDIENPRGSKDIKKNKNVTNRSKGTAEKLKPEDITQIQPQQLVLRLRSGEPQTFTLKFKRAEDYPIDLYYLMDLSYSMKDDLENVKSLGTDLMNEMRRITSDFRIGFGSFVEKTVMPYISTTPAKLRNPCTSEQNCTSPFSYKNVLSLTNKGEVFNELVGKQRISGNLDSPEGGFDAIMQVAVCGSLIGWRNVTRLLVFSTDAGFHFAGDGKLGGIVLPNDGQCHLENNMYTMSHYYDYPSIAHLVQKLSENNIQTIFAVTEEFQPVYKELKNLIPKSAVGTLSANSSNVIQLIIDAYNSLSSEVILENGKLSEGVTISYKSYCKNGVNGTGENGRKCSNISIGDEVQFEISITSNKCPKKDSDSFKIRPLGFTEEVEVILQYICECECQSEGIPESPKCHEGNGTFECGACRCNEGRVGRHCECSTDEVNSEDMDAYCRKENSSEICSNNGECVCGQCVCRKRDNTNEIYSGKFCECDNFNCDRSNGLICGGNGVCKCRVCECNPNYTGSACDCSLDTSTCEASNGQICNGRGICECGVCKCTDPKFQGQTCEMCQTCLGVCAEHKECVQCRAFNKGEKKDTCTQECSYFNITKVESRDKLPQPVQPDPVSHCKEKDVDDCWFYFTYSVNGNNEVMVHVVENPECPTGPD
soluble α2β1 integrin, sequence (P17301 30-1132, chain 1 of 2): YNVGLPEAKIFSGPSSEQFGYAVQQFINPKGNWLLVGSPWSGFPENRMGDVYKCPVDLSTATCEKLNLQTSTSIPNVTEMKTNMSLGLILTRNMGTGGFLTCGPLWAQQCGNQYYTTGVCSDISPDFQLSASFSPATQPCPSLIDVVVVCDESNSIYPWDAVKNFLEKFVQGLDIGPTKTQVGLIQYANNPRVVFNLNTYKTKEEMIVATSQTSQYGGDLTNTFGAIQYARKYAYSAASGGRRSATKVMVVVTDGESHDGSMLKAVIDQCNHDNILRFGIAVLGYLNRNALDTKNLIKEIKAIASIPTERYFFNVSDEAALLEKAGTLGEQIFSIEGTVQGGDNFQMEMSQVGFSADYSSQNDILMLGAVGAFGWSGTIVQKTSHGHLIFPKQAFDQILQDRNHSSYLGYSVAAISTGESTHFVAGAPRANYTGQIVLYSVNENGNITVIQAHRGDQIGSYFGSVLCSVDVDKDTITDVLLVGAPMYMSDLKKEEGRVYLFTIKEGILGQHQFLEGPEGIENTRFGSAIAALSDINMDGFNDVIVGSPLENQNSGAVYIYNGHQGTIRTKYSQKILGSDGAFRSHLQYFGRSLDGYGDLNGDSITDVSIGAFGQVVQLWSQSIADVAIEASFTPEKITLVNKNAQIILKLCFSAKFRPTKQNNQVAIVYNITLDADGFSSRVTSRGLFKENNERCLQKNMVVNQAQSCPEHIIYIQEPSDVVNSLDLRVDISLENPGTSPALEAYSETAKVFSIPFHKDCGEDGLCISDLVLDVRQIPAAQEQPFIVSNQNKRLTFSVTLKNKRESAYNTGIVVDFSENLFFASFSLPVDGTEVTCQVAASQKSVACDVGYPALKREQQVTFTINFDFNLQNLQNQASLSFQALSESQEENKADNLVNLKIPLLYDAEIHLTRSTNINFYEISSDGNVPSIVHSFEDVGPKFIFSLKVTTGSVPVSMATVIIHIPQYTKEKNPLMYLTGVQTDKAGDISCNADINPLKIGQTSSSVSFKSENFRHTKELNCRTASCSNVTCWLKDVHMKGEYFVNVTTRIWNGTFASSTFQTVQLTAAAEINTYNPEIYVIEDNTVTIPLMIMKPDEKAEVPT
soluble α2β1 integrin, sequence (P05556 21-728, chain 2 of 2, further chain): as the sequence (P05556 21-728, chain 2 of 2, further chain) above

binding result (soluble α2β1 integrin): no binding (tested: 50-350 ng per well)
binding result (soluble α5β1 integrin): no binding (tested: 50-350 ng per well)
binding result (soluble αvβ5 integrin): no binding (tested: 50-350 ng per well)
B1: GST alone (other)
chain: not shown
notes: Control ligand in the solid-phase assay
